Measurements: the supplement of paper PMC12217912
The list shows a part of the results. Sequences were assembled here from the parent chain. Inactive controls read about 0.05.

B1: TEV protease; numbered along this chain (parent)
chain: MGESLFKGPRDYNPISSSICHLTNESDGHTTSLYGIGFGPFIITNKHLFRRNNGTLVVQSLHGVFKVKDTTTLQQHLVDGRDMIIIRMPKDFPPFPQKLKFREPQREERICLVTTNFQTKSMSSMVSDTSCTFPSGDGIFWKHWIQTKDGQCGSPLVSTRDGFIVGIHSASNFTNTNNYFTSVPKNFMELLTNQEAQQWVSGWRLNADSVLWGGHKVFMVKPEEPFQPVKEATQL

Variants of: B1
Experiment: raw area under fraction-flipped curve 0-4 h after induction (AUC4h, not background-subtracted), DNA-recorder readout of cleavage of the substrate (dimensionless); higher = more cleavage of the substrate by the protease variant
Details: temperature: 34 °C; time window: 0-4 h after rhamnose induction
Protocol: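 In vivo DNA recorder in E. coli TOP10(DE3) ΔrhaA at 34 °C. Each TEVp single-site mutant (parent TEVp 0) is paired with a single-site variant of the 7-mer TEVs (canonical ENLYFQ|S). The substrate sits between flexible linkers in a Bxb1-sfGFP-TEVs-SsrA fusion, so cleavage stabilises Bxb1 and speeds flipping of a recombination array, read by NGS. The value is the raw area under the fraction-flipped curve over 0-4 h after rhamnose induction (AUC4h), with ≥20 reads per time point. It is not background-subtracted; inactive controls average about 0.047.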
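Further: Bxb1 expression induced with 0.2% (w/v) L-rhamnose at OD600 near 0.5, cultures sampled hourly, flipped fraction per protease–substrate barcode pair counted by paired-end Illumina sequencing.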

Row | Variant | area with substrate ENLYFAS | area with substrate ENLYFES | area with substrate ENLYFFS | area with substrate ENLYFGS | area with substrate ENLYFNS | area with substrate ENLYFPS | area with substrate ENLYFRS | area with substrate ENLYFSS | area with substrate ENLYFDS | area with substrate ENLYFHS | area with substrate ENLYFIS | area with substrate ENLYFKS | area with substrate ENLYFMS | area with substrate ENLYFYS | area with substrate ENLYFCS | area with substrate ENLYFWS | area with substrate ENLYFTS | area with substrate ENLYFVS | area with substrate ENLYFLS
1 | F140H | 0.0505 | 0.0672 | 0.098 | 0.0536 | 0.0632 | 0.067 | 0.0603 | 0.0518 |  |  |  |  |  |  |  |  |  |  | 
2 | E189P | 0.0625 | 0.0628 | 0.0437 |  | 0.0749 |  | 0.105 | 0.0593 | 0.069 | 0.0844 | 0.038 | 0.0705 | 0.0534 | 0.0466 |  |  |  |  | 
3 | Y179V | 0.0685 |  |  | 0.0613 |  |  | 0.0592 | 0.0582 | 0.0615 | 0.0607 | 0.059 | 0.105 | 0.0426 | 0.0509 | 0.0762 | 0.0408 |  |  | 
4 | K7N | 0.0584 | 0.0724 |  |  | 0.0685 | 0.0681 |  | 0.0637 | 0.0598 | 0.0666 | 0.0668 | 0.0637 | 0.0631 |  | 0.0234 |  | 0.0595 |  | 
5 | V57A | 0.0544 | 0.069 | 0.0684 | 0.0826 |  | 0.0498 | 0.051 | 0.048 |  | 0.0501 | 0.041 | 0.0504 | 0.0668 | 0.0388 | 0.057 | 0.0639 | 0.0553 | 0.062 | 
6 | I86G | 0.0512 | 0.03 |  | 0.0432 |  | 0.0299 | 0.0396 | 0.0465 |  |  |  | 0.0335 | 0.0428 | 0.0331 | 0.0266 |  | 0.0452 |  | 
7 | V183S | 0.0533 | 0.0729 | 0.0847 |  | 0.0584 | 0.05 |  | 0.0753 |  | 0.0596 |  | 0.0543 | 0.0561 |  | 0.048 | 0.0596 | 0.0557 |  | 
8 | D82I | 0.0365 | 0.0354 | 0.0594 |  |  | 0.0265 |  | 0.0449 |  | 0.0525 | 0.076 | 0.0486 | 0.0479 |  | 0.0614 |  | 0.0495 | 0.0474 | 0.0325
9 | Q227Y | 0.041 | 0.0658 |  |  | 0.0589 | 0.0657 | 0.098 | 0.0505 | 0.0533 | 0.0146 | 0.0509 | 0.0581 | 0.0589 |  | 0.0487 |  | 0.0564 | 0.0624 | 0.0608
10 | L190E | 0.06 | 0.0667 | 0.0713 |  | 0.0787 | 0.0622 |  | 0.0496 | 0.0533 |  | 0.0454 | 0.0552 | 0.0671 | 0.0474 | 0.0822 | 0.0916 | 0.0561 | 0.05 | 0.0651
11 | P93Q | 0.0574 |  | 0.0733 | 0.0726 |  | 0.0244 |  |  | 0.0627 | 0.0713 | 0.0632 |  | 0.0744 | 0.0653 | 0.0528 | 0.0601 |  |  | 0.0442
12 | P93H | 0.0615 | 0.063 | 0.061 |  | 0.0843 | 0.0598 | 0.0564 |  |  |  | 0.058 |  | 0.0763 |  |  | 0.0519 |  |  | 
13 | T55H | 0.0627 | 0.0598 | 0.0622 |  | 0.0414 | 0.0634 | 0.0682 |  |  | 0.0658 | 0.0666 | 0.0667 | 0.061 | 0.0516 | 0.0444 | 0.0762 | 0.0793 |  | 
14 | F41R | 0.037 | 0.0567 | 0.0596 | 0.0485 | 0.0551 | 0.0544 |  |  | 0.0495 | 0.0677 | 0.05 | 0.0482 | 0.0561 |  | 0.0268 | 0.0314 | 0.053 |  | 
